Results on 72 sequences are retold here after PMC10726135.

The other results are listed elsewhere or left out. At the low end of the ranking, values are background and their order means little. The protein was read in a cell extract, so binding may be indirect.

This experiment addresses T1, HNF4alpha2 (COS-7 nuclear extract) (UniProt P41235).
T1 sequence: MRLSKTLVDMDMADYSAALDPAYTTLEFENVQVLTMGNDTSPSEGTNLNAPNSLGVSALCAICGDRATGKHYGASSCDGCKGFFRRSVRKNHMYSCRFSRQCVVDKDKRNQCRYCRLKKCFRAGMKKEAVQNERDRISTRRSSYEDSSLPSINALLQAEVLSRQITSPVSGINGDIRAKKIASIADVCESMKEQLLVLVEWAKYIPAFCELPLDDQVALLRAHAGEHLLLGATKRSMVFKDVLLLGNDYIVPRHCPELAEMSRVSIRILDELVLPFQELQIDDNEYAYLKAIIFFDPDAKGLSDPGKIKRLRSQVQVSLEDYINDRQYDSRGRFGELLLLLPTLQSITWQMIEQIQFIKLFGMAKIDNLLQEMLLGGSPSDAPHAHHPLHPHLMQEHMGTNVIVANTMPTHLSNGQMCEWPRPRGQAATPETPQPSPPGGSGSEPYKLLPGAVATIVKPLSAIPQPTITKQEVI
In words: protein-binding microarray. Conditions: COS-7 nuclear extract on double-stranded Agilent 4x180k PBM; binding buffer, salt, pH and temperature not given; high values mean tight binding; double strand, one strand shown; sequences stand for … in …GCCTAGGGAGATTAGAGTATCGGTCGA
In the case of AACCAAGGGTACACACCGTTAGCCAATATT, the binding signal (log2 normalized intensity) is -1.15.

Turning to GACCGTCCCTGGGTACAACTTTATCTAAGG, the binding signal (log2 normalized intensity) came to 0.0384. With GGAATGCGGGCTCCACCACTTGCTCACGAA the figure was -0.969; with CTTAGACCCCTGAATAGGTCTTGGAATGTG, 1.75. As for CCAGGGCATTGCCGTTCAGGGCCACGGGAA, the figure is -0.917; as for ACAAGGAAAACAAGGTACAGAGAGTTTAAG, -1.12. Turning to GGGTACACATGGCCGTAAAGATAAGAACGC, the binding signal (log2 normalized intensity) is -1.19. Turning to TCCTTTTCATTCTTTAAGGACCACATCAAA, the binding signal (log2 normalized intensity) stood at 1.75.

On to GGCTGATTTCTCAGGAAGTGCTTGTTCCCT, for which the binding signal (log2 normalized intensity) was found to be 0.316. For the sequence ACACATCTTCCATCGGACTTTGATCTGCCA, the binding signal (log2 normalized intensity) stood at 6.22. With GCCTGGTCTGCACTCCAGGAAAGACGAGTG the figure was 0.842.

GTCCTTCCCAAGTCCTGCATGTGTTCACAC: the binding signal (log2 normalized intensity) turned out to be 1.37. With AGATGGTCAAAGGTTGATGGTATGTTTCAG the figure was 3.07; with AACATGTAATCATTTGGGACAAAGTTCATC, 4.11; with CGGCTGGGGATGAAGGGGGCGGGGGCGAAA, -1.04. As for TTAACTGAACCTAGATTCCAGGAAGAAAGA, the figure is -1.04.

As to AGAAGCTGTTGGAAAGGGCACTGATAACCT, the binding signal (log2 normalized intensity) was -1.09. Consider CCTCGGCCGGCCCGGCAGCCCTGCTCCCCG, for which the binding signal (log2 normalized intensity) is -1.09.

With ATTGTGTCATTGGTATCCACAGAGTTCATA, the binding signal (log2 normalized intensity) was found to be 1.71. On to CTGGGAGATGAGCTCTGAACTAACAATTCT, for which the binding signal (log2 normalized intensity) was -1.07. With GGAACAACTTCGGGAATCTGACCTTTGGGA, the binding signal (log2 normalized intensity) is 4.89. Take CCTGCGTCTTATATAAGCTATTACTTGATT: the binding signal (log2 normalized intensity) worked out at 0.592. With GTGGCAGCATTGTGCTGAAAAGACTTCACA the figure was -1.14; with TGGGGAAGTCTCTAGATGGGGTTGAGCAGA, -1.12; with TTTTCCCGGTTTGTTCCATGCCACAGAATC, 0.655. As for CTGAGGTTAAAGTCCACATTCTTTAGCATA, the figure is 5.15; as for TCTCAGGGAGTGCAAACTTCTTTGAAGAAG, -1.16; as for CACCCCCCAAGTAGAGAGCAATTATGCACC, 3.29.

As for GGGACCTTGATGGCATTCTTGAGCTACCGC, the binding signal (log2 normalized intensity) is -1.16. As for TTCTCTGTGACCTTTGGAAGGTGGGGGAGG, the figure is 4.13; as for AGATATATCACCTGCCAGCTGTTATGAGTC, 0.286; as for CCCTATCCCCAGATTCCAGGGGAGGGTAAG, -1.18. With CATCTAAGGACAAACTTTGTCACTGCAAAT the figure was 0.452; with CTTGGACTTTAACCTTTAGATTACTAGGAA, 6.18; with GGGGCATAGCCCATGCAAATACTCGGTGAC, -0.814.

Take AGTTAGTTTACTTAGGCCTCCCAGAACGTG: the binding signal (log2 normalized intensity) was 1.24. Regarding GCTATCCCGGCCAACGGTCGGAAGGGAGGT, the binding signal (log2 normalized intensity) is -1.19.

Turning to GTATGCTATTAGTGGTTAAGTTTTCGAGGA, the binding signal (log2 normalized intensity) came to 1.17. For the sequence TCACCACATCTCCCACTGTGGACTCTGAGC, the binding signal (log2 normalized intensity) was 4.82. As for TCCAAGGAACCTCACGCGCTCCCTGTTTAG, the figure is -1.23; as for TGTAGACATTGGAATGCGGGCTCCACCACT, -1.19; as for CCATATCACATTTTAAGGTCTGGCATTCTT, 1.37. With CTGGATCCGTTAACAGCGGCATTCCTGTCA the figure was -1.17; with GTCTTAGGATCTGTGTTATGCTTGCAGGTG, 1.5; with TTCCCTGAGTTTCCATTAACTGAACCTAGA, 0.529. For TACAAACAGCCCTGACATTCTTGAGCTGCT, the binding signal (log2 normalized intensity) was -1.15. As for GTCACCCTCCCCGCCACCCCCCAGAGGGCC, the figure is 6.08; as for TGAGCTTGAGTCCATCCCATCTTCCAGAAA, 0.309. With TCCCCCATGAAATTGAGATAAACATGAAAC the figure was 2.04; with ACAGTAGGGAAAGTGGGGGGAAAGAATAAC, -1.2.

Consider GCAAACAGCACTCTCTGATTACACAGGCCT, for which the binding signal (log2 normalized intensity) is -1.37. In the case of AGCTACTAGCAAATCTGCCCAACCTTTGCC, the binding signal (log2 normalized intensity) worked out at 0.949. In the case of CTGGGAAGAGAAGGTGAACTTGCTCAACCT, the binding signal (log2 normalized intensity) is -1.14. As for CTACCGTACCTAGGACAAAGCAAACACTCA, the binding signal (log2 normalized intensity) was -1.2. In the case of CCAAGTGAGTAAGGAAAGCCACTTCCTGGC, the binding signal (log2 normalized intensity) is -1.18. With CTGGTGCAGTCCAAGAGGCCCAGGTAAACA the figure was -1.21; with GCTAACAGTAAAACTGAGATCTAAGCGATA, -1.26; with GATGTTTGCCCATGATCATATGGACTATGT, 3.41. With AGCTCCACAGCTGGACTTTGGCTGCAAAAT the figure was 4.01. As to ATTGTCAGGCCAGTAGGTCAGTGTCCCTCT, the binding signal (log2 normalized intensity) is 1.24.

Consider GTAACCTGCAAAGAGCAAACTCCAGTTGTA, for which the binding signal (log2 normalized intensity) is -1.03. Regarding AGTGAGACAGACATGCGACATGAGGAGCCT, the binding signal (log2 normalized intensity) was -1.11.

Regarding TTCCAGGGTTACCGGCAGAGAGAAGCCACT, the binding signal (log2 normalized intensity) is -1.1. With CTGCCAAATATTGGGCAATGCTAGGTCTTT the figure was -0.788; with GCATGAGGCCCCTTGCAATGCTGGAGGGAC, -1.25; with GGTGGACAAGACTGGTTTTTCAGATCCCTC, -1.07. With AAGTCTTTCCCTGCCAGTTCCATGTAATCC the figure was 0.625; with CCGCTGGCGCCATCCAAAGGCCCGAGGGCC, -1.11. Take GCCCCATGCTGATAAGGGCCACAGATGGCC: the binding signal (log2 normalized intensity) was -1.21. Consider TCAAAGGGACAGCACTGGCATGCAGCAGGG, for which the binding signal (log2 normalized intensity) was -1.06. As for AGTGATAAGGAACCTAGGAAATCAAAAACC, the figure is -1.24; as for ACCTTTGGGCTCTGACCCGAAGGGTAGGAG, 0.761.
